Experimental findings from US20260151501A1, “ANTIBODY-DRUG CONJUGATE COMPRISING ANTI-CLAUDIN-18.2 ANTIBODY, AND THERAPEUTIC USE THEREOF FOR CANCER” (ABTIS CO., LTD., priority 2022, published 2026) are described below.

As usually defined, the IC50 is the concentration needed to halve the response being measured.

The test system of one data set is MOCK CHO-K1. The data set can be described thus: Cell-based ELISA binding to MOCK CHO-K1 cells. The conditions noted are these: negative control, empty vector. As to the method: OD value measurement through ELISA was performed by measuring the absorbance at 450 nm using a UV-Vis spectrometer.
A CHO-K1 cell line (hereinafter, referred to as “Claudin18.1 CHO-K1”) into which a gene (SEQ ID NO: 18) encoding the claudin18.1 protein (CLDN18.1) was transiently transfected, a CHO-K1 cell line (hereinafter, referred to as “Claudin18.2 CHO-K1”) into which a gene (SEQ ID NO: 19) encoding the claudin18.2 protein (CLDN18.2) was transiently transfected, and a CHO-K1 cell line (hereinafter, referred to as “MOCK CHO-K1”) into which only a NOCK vector (empty vector) was transiently transfected were prepared. At this time, a pcDNA3.1 vector was used for Claudin18.1 CHO-K1, and a pcDNA3.1 (+) vector was used for Claudin18.2 CHO-K1. […]
Transient transfection was performed according to the TransIT2020 manual, the transfected cells were plated on a 96-well plate for culture, and then treated with each of antibody-A and ADC-A. Thereafter, cell-based enzyme-linked immunosorbent assay (ELISA) was performed, and optical density (OD) values were measured.
The measured results were used for a regression analysis using GraphPad PRISM® 9.0 software to calculate EC50 and Bmax. The cell binding affinity of antibody-A and ADC-A was evaluated based on the calculated values.
For orientation: An ELISA detects its analyte on a solid surface through an enzyme-linked reagent.

For data set [1], the system named is MIA PaCa-2 (CLDN18.2-) cell line. Briefly: Real-time cellular internalization, MIA PaCa-2 (CLDN18.2-). The conditions noted are these: no CLDN18.2 expression. In kind it is cell-based. The protocol:
Real-time internalization measurement was performed according to the manuals of the reagents and equipment.
The prepared cell lines were cultured in DMEM containing 10% FBS and 1% penicillin/streptomycin (MIA PaCa-2˜CLDN18.2, MIA PaCa-2 (CLDN18.2-)) and RPMI1640 containing 10% FBS and 1% penicillin/streptomycin (SNU601) in an incubator under the conditions of 37° C. and 5% CO2. The MIA PaCa (CLDN18.2-), MIA PaCa-2˜CLDN18.2, and SNU601 cell lines were plated on 96-well plates at 3,000 to 5,000 cells/well.
Samples for internalization verification, antibody-A and ADC-A, were prepared according to the IncuCyte® Fabfluor-pH reagent manual.
Finally, antibody-A and ADC-A were diluted to each of 8, 4, and 2 μg/mL, and designated wells were treated with 50 μL of each. The internalization levels of the plates mixed with the sample were measured every hour using the IncuCyte® Live-Cell Analysis System.

The subject of another data set is AGS cell line. The data set can be described thus: Cytotoxicity (CellTiter-Glo cell viability), AGS. The format is cell-based. As to the method: To measure cell viability in cytotoxicity experiments, the measurement of luminescence using GloMax® Discover was used, and the measurement method was according to the equipment manual.
Four types of cell lines (MIA PaCa-2˜CLDN18.2, PATU8988S, parental MIA PaCa-2 (CLDN18.2-), SNU601, NUGC-4, and AGS) were prepared. At this time, MIA PaCa-2˜CLDN18.2 and PATU8988S are CLDN18.2-positive pancreatic cancer cell lines. MIA PaCa-2 (CLDN18.2-) is a CLDN18.2-negative pancreatic cancer cell line. SNU601 and NUGC-4 are CLDN18.2-positive gastric cancer cell lines. AGS is a CLDN18.2-negative gastric cancer cell line.
The prepared cell lines were cultured in DMEM containing 10% FBS and 1% penicillin/streptomycin (MIA PaCa-2˜CLDN18.2, MIA PaCa-2 (CLDN18.2-)), RPMI1640 containing 10% FBS and 1% penicillin/streptomycin (SNU601, NUGC-4, and AGS), and DMEM containing 5% FBS, 5% horse serum, 1% penicillin/streptomycin, and […] L-glutamine (PATU8988S) in an incubator under the conditions of 37° C. and 5% CO2. […]
Changes in cell viability according to treatment of each test substance were measured using the same method as the CellTiter-Glo manual.
The measured results were used for a regression analysis in GraphPad PRISM® 9.0 software to calculate IC50. The cytotoxicity of each test substance was evaluated based on the calculated values.
For orientation: In ATP-based viability assays light output follows the ATP content of the culture.

The nature of data set [2]: Plasma stability, human plasma. In kind it is in vitro ADME. The conditions noted are these: 37° C., 15 days, relative to day 0 (5 minutes). As to the method:
(§1) Centrifugation in the pretreatment process was performed under the conditions of 13,000 rpm and 4° C. for 10 minutes.
(§2) Human, monkey, rat, and mouse plasma were prepared.
(§3) For example, when the linker was cleaved in ADC-A, it was not included in total ADC.

Data set [3] can be described thus: Plasma stability, monkey plasma. In kind it is in vitro ADME. The settings on record: 37° C., 15 days, relative to day 0 (5 minutes). The protocol: as §1, §2, §3
Data set [4] can be described thus: Plasma stability, rat plasma. In kind it is in vitro ADME. The settings on record: 37° C., 15 days, relative to day 0 (5 minutes). The protocol: as §1, §2, §3
Data set [5] in a line: Plasma stability, mouse plasma. The format is in vitro ADME. The settings on record: 37° C., 15 days, relative to day 0 (5 minutes). The protocol: as §1, §2, §3

B1: Antibody-A: anti-claudin18.2 antibody with heavy chain of SEQ ID NO: 16 and light chain of SEQ ID NO: 17 (antibody)
heavy: QVQLVESGGGVVQPGRSLRLSCAASGFSLTTYGVHWVRQAPGKGLEWVAVIWAGGSTNYNSALMSRFTISRDNSKNTLYLQMNSLRAEDTAVYYCARAAYYGNGLDYWGQGTMVTVSS[… human IgG1 constant region …]
light: DIVMTQSPLSLPVTPGEPASISCKSSQTLLNSGNQKNYLTWYLQKPGQSPQLLIYWASTGESGVPDRFSGSGSGTDFTLKISRVEAEDVGVYYCQNAYFYPFTFGGGTKVEIKRTVAAPSVFIFPPSDEQLKSGTASVVCLLNNFYPREAKVQWKVDNALQSGNSQESVTEQDSKDSTYSLSSTLTLSKADYEKHKVYACEVTHQGLSSPVTKSFNRGEC
modifications: heavy chain of Claudin18.2 antibody; light chain of Claudin18.2 antibody
As for B1, in the data set on MOCK CHO-K1, the “binding to MOCK CHO-K1 cell line” value is given as “did not bind”. The internalization result in data set [1] was “not internalized”. The IC50 with AGS cell line (AGS (CLDN18.2−), gastric cancer) was more than 66.7 nM. The total antibody maintained was found to be 85.2% in data set [2], 97.3% in data set [3], 68.2% in data set [4] and 72.0% in data set [5].

B2: ADC-A (conjugate)
heavy: QVQLVESGGGVVQPGRSLRLSCAASGFSLTTYGVHWVRQAPGKGLEWVAVIWAGGSTNYNSALMSRFTISRDNSKNTLYLQMNSLRAEDTAVYYCARAAYYGNGLDYWGQGTMVTVSS[… human IgG1 constant region …]
light: DIVMTQSPLSLPVTPGEPASISCKSSQTLLNSGNQKNYLTWYLQKPGQSPQLLIYWASTGESGVPDRFSGSGSGTDFTLKISRVEAEDVGVYYCQNAYFYPFTFGGGTKVEIKRTVAAPSVFIFPPSDEQLKSGTASVVCLLNNFYPREAKVQWKVDNALQSGNSQESVTEQDSKDSTYSLSSTLTLSKADYEKHKVYACEVTHQGLSSPVTKSFNRGEC
Regarding B2, the “binding to MOCK CHO-K1 cell line” value in the data set on MOCK CHO-K1 is recorded as “did not bind”. Further, the internalization entry in data set [1] is “not internalized”. For the same molecule, in the data set on AGS cell line (up to the highest treatment concentration, AGS), the “toxicity in CLDN18.2-negative cell lines” value is listed as “almost no toxicity”. Further, the “total ADC maintained” value in data set [2] was determined as 75.1%; in data set [3] it was 77.5%; in data set [4], 50.3%; in data set [5] it was 77.0%. In addition, the total antibody maintained in data set [2] is reported as 74.8%; in data set [3] it was 90.3%; in data set [4], 64.0%; in data set [5], 78.7%.
